Experimental findings from article PMC12040169 (PLOS Biology, 2025) are described below.

Some of the results follow.

The subject of the assay is T1, C. trachomatis L2/434/Bu expressing GFP (CTL2-GFP).
T1 construct: L2/434/Bu GFP intracellular growth in HeLa cells
Also noted: species or system HeLa; C. trachomatis total inclusion area by high-content imaging, normalised to DMSO. The conditions noted are these: total inclusion area; 28.5 h, 10 µM; inhibitor. The essentials:
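High-content imaging followed the bulk GFP/resorufin measurement: fixed, Hoechst-stained cells were scored for GFP inclusions and host nuclei per well. Total inclusion area and count served as growth proxies, nuclei number as the viability proxy. MIC calculation matched the bulk assay.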
On to `NS(=O)(=O)c1ccccc1Sc1ccccc1` [CBK020524], for which the “% of control remaining” value worked out at 28.8082.
Consider `O=C(NC1CC1)c1nn(-c2ncccn2)c2ccccc12` [CBK048508], for which the “% of control remaining” value is 102.199.
Under `Cc1ccc(S(=O)(=O)Nc2sccc2C(=O)N2CCN(C)CC2)cc1` [CBK042264] stands 95.718.
For `Cc1ccc2[nH]c(-c3cccc(NC(=O)c4cccc(CN5CCCC5=O)c4)c3)nc2c1` [CBK285838] the value was 43.8188; for `Cc1cc(C)cc(C(O)CNC2CCN(Cc3cscn3)CC2)c1` (stereo not drawn) [CBK304457], 34.8248.
Under `CCOc1c(Br)cc(CNc2nc[nH]n2)cc1OC` [CBK268009] stands 108.108.
Consider `c1ccc(-c2ccccc2CN2CCN(c3nccnc3OCCN3CCOCC3)CC2)cc1` [CBK082893T], for which the “% of control remaining” value was 85.0309.
Consider `CCn1c(SCc2nc(-c3ccc(Br)cc3)no2)nnc1-c1c[nH]c2ccccc12` [CBK268668], for which the “% of control remaining” value is listed as 114.149.
For `O=C(O)CNC(=O)CCS(=O)(=O)c1ccc(F)cc1` [CBK286580] the value was 78.2391; for `O=C(CCc1cc(F)ccc1F)NCCCn1nc2n(c1=O)CCCC2` [CBK305782], 28.3499.
Regarding `CC(C)Nc1cc(SCc2ccc(Cl)c(Cl)c2)ncn1` [CBK103665], the “% of control remaining” value is listed as 66.6087.
Under `Cc1nnc(SCC(=O)NNC(=O)c2cccs2)[nH]1` [CBK266879] stands 78.17; under `CC(NC(=O)c1cccc(Oc2ccccc2)c1)c1ccncc1` (stereo not drawn) [CBK270327], 94.5414.
Take `COc1cc(Nc2nc(-c3c(OC)cccc3OC)cn3ccnc23)cc(OC)c1OC` [CBK037395]: the “% of control remaining” value was 95.9318.
Under `Cc1ccc(C(NC(=O)Cn2ccnc2)c2ccncc2)cc1C` (stereo not drawn) [CBK281591] stands 75.2093; under `O=C(/C=C/c1cccnc1)Nc1cccc(N2CCNCC2)c1` [CBK034128T], 74.0687; under `O=C(NCCN1CCCCC1)C1CC(=O)N(Cc2ccco2)C1` (stereo not drawn) [CBK304877], 120.983.
Under `Nc1nc2c(s1)c(=O)[nH]c(=O)n2-c1ccc(Cl)cc1` [CBK269891] stands 73.4575; under `Cc1cc(N2CCCC(COc3ccccc3F)C2)nc(N)n1` (stereo not drawn) [CBK306714], 5.649; under `O=C(CCCCCN1C(=O)c2ccccc2C1=O)Nc1cccc(C(=O)O)c1` [CBK287261], 54.4439.
As to `CS(=O)(=O)c1ccc(-n2cc(CN3CCC(Sc4ccccc4)CC3)nn2)cc1` [CBK149468], the “% of control remaining” value is recorded as 101.207.
For `O=C(CN1CCc2c([nH]c3ccccc23)C12CCN(Cc1ccc(F)cc1)C2)Nc1ccccc1` (stereo not drawn) [CBK059450] the value was 80.691; for `CCCC1(C)NC(=O)N(Cc2coc(-c3cccs3)n2)C1=O` (stereo not drawn) [CBK305594], 29.229; for `O=C(O)CC(c1ccncc1)c1c[nH]c2ccccc12` (stereo not drawn) [CBK286913], 107.243.
For `O=[N+]([O-])c1ccc(N/N=C/c2cnn(-c3ccccc3)c2)cc1` [CBK018746] the value was 69.7712.
On to `O=C(NCCn1c(C(F)(F)F)cc(=O)c2cccc(F)c21)C1CC1` [CBK284807], for which the “% of control remaining” value amounted to 119.435.
Under `COc1ccc(Cl)cc1S(=O)(=O)N1CCC(C(=O)O)CC1` [CBK269607] stands 99.3483.
Under `CCOC(=O)Cc1csc(NS(=O)(=O)c2cc(C)c(Cl)cc2Cl)n1` [CBK012872] stands 96.5964.
For `CC(=O)Nc1cccc(-c2cncc(NCc3ccco3)n2)c1` [CBK065290] the value was 137.696; for `Cc1ccc(S(=O)(=O)Nc2ccccc2-c2nc3ccccc3c(=O)o2)cc1` [CBK087613], 87.3317; for `O=c1[nH]c2ncc(-c3ccco3)nc2n1Cc1cccs1` [CBK064438], 134.022.
For the compound `CC1=C[C@@H](CNC(=O)NC2CCCCC2)[C@H](C(C)C)C[C@H]1CC(=O)O` [CBK289211], the “% of control remaining” value was determined as 108.426.
For the compound `CN(C)CCN(C)c1nc(-c2ccc(Oc3ccccc3)cc2)cn2ccnc12` [CBK066469], the “% of control remaining” value is recorded as 149.335.
For `CC1c2ccsc2CCN1S(C)(=O)=O` (stereo not drawn) [CBK023574] the value was 76.4178; for `Cc1ccc(OC(=O)CCC(=O)Nc2ccc(S(N)(=O)=O)cc2)cc1` [CBK264708], 101.248; for `COCCN1CCN(c2nc(-c3ccncc3)nc3c2CCC3)CC1` [CBK306101], 115.679.
Under `COc1ccc(-c2c3c(nc4sc(C#N)c(N)c24)CCCC3)cc1` [CBK270279] stands 65.3144.
Under `O=C(N[C@H]1CCN2C(=O)c3cc(-c4cccs4)ccc3NC(=O)[C@H]12)c1cccs1` [CBK289336] stands 93.5818; under `Cc1nc(-c2cccnc2)[nH]c(=O)c1CC(=O)N1CCN(C)CC1C` (stereo not drawn) [CBK304950], 142.177.
Turning to `O=S(=O)(Nc1ncccn1)c1ccc(NC(=S)Nc2ccc3c(c2)OCO3)cc1` [CBK267046], the “% of control remaining” value turned out to be 25.5935.
Under `CCCCOc1ccc(-c2ccc(C#N)cc2)cc1` [CBK056958] stands 60.8784; under `CN1CCC(N2CCN(C(=O)NCc3ccc4c(c3)OCO4)CC2)CC1` [CBK155885], 98.9837; under `O=C1CN(C(=O)Nc2ccccc2Cl)CCN1` [CBK155862], 93.8808.
Under `O=C(CCCN1C(=O)c2cccc3cccc(c23)C1=O)N1CCN(Cc2ccc3c(c2)OCO3)CC1` [CBK074370] stands 99.2638; under `Cc1ccc(S(=O)(=O)N(CCO)CC2CC2)c(Cl)c1` [CBK304885], 60.7506.
In the case of `C[C@@H](Nc1nc(-c2cccc3cccnc23)cnc1N)c1ccccc1` [CBK063784], the “% of control remaining” value amounted to 157.335.
With `CCOCC(=O)N(C)C(CO)c1cc(OC)ccc1Br` (stereo not drawn) [CBK304722], the “% of control remaining” value came out at 42.1235.
On to `O=C1N=C(N2CCCCCC2)SC1CC(=O)N1CCCc2ccccc21` (stereo not drawn) [CBK063336], for which the “% of control remaining” value is 71.805.
For `CN1CCC(N(C)C(=O)NCC2COc3ccccc3O2)C1` (stereo not drawn) [CBK155994] the value was 89.5307; for `Cn1c2c(c3ccccc31)CCOC21CCN(Cc2ccc(OC(F)F)cc2)CC1` [CBK039975], 81.8503.
`O=C(O)CSC1=CC(=O)N(c2ccc(Br)cc2)C1=O` [CBK287263]: the “% of control remaining” value came to 103.504.
Under `Cc1nn(C)c(C)c1CN(C)C(=O)CCC1CCCO1` (stereo not drawn) [CBK283078] stands 103.191.
Under `Cc1csc(CNCc2c(C)nn(C)c2N(C)C)n1` [CBK304804] stands 48.7109; under `c1ccc(C(CC2CCCCC2)NCc2cccnc2)cc1` (stereo not drawn) [CBK073816], 115.258.
Under `O=C(CN1CCCC1)N1CCC(c2cccc(Cc3ccc(C(F)(F)F)cc3)n2)CC1` [CBK286215] stands 89.0781.
For `COCCN1CC(CNC(=O)Nc2cc(NC(C)=O)ccc2F)CC1=O` (stereo not drawn) [CBK304398], the “% of control remaining” value is on record as 50.0064.
Under `CC(=O)Nc1cccc(-c2nccnc2NCC(c2cccnc2)N(C)C)c1` (stereo not drawn) [CBK037998] stands 112.361; under `Cn1cccc1C1(O)CCCC2CN(C(=O)c3ccco3)CC21` (stereo not drawn) [CBK284509], 106.387; under `CCCCc1ccc(NC(=S)NN2CCN(C)CC2)cc1` [CBK265741], 114.373.
For `COc1ccc(CC(=O)Nc2nnc(C)s2)cc1OC` [CBK287359] the value was 68.5014; for `COc1ccc(CN2CCN(C(=O)c3cccs3)CC2)cc1OC` [CBK074410], 113.509; for `COc1cc2c(cc1CNS(=O)(=O)c1ccc3[nH]c(=O)[nH]c(=O)c3c1)CCC2` [CBK286396], 76.6434.
Regarding `C(#Cc1ccc(-c2cc[nH]n2)s1)c1ccccc1` [CBK023413], the “% of control remaining” value worked out at 67.54.
As to `Cc1cccc(-c2cc(C(=O)O)c(C)o2)c1` [CBK045855], the “% of control remaining” value amounted to 98.4712.
Under `O=C(Cn1cnc2c(cnn2-c2ccccc2)c1=O)N1CCc2ccccc21` [CBK287529] stands 79.1822.
Turning to `C=CCn1c(SCC(=O)Nc2ccccn2)nnc1-c1ccc(Br)cc1` [CBK022413], the “% of control remaining” value stood at 94.747.
Under `CCOC(=O)CSc1nc(-c2ccc(C)cc2)cs1` [CBK007039] stands 65.9427.
For `CCc1nc2ccc(C(=O)N3CCNC(=O)C3)cn2c1N(C)C(=O)COc1ccccc1` [CBK145871] the value was 118.78.
Under `CCN(CC)S(=O)(=O)c1cc(C(=O)NC2CCCCC2)ccc1Br` [CBK058354] stands 64.9504.
`Cc1ccc2oc([C@H]3CCN(Cc4ccc(C(=O)O)cc4)C3)nc2c1` [CBK289386]: the “% of control remaining” value came out at 96.3657.
Under `Cc1nc2[nH]c(=O)nc(N)c2nc1C` [CBK025658] stands 50.4704; under `CCSC(SCC)c1ccnn1-c1ccccc1` [CBK019332], 83.2607; under `CCOC(=O)c1cnc(O/N=C(\N)c2ccc(C(C)(C)C)cc2)nc1C(F)(F)F` [CBK022142], 105.055.
Regarding `Cc1ccc(-n2c(C)c(C)c3c(NCCO)cnnc32)cc1` [CBK288162], the “% of control remaining” value came to 59.4334.
Turning to `COC(=O)c1c(NC(=S)NCc2ccc(S(N)(=O)=O)cc2)sc2c1CCC2` [CBK266926], the “% of control remaining” value stood at 117.96.
Under `Cc1nc(C)c(CNC(=O)NC2CCCN(c3ccn(C)n3)C2=O)s1` (stereo not drawn) [CBK305457] stands 64.0685.
On to `COc1ccc(C2(CN3CCC(NC(=O)C4CC4)CC3)CC2)cc1` [CBK285358], for which the “% of control remaining” value is 92.0658.
In the case of `COc1ccc([C@H]2CN(Cc3ccccc3)C[C@@H]2NC(C)=O)cc1` [CBK282930], the “% of control remaining” value was 95.6821.
Under `O=C(CSCC(=O)c1ccc(F)cc1)Nc1ccc2ccccc2c1` [CBK263264] stands 121.022; under `COC(=O)c1ccccc1NC(=O)CSc1nnnn1C` [CBK267441], 107.807.
With `CCn1c2ccccc2c2cc(/C=N/c3cc(S(=O)(=O)c4ccc(O)c(/N=C/c5ccc6c(c5)c5ccccc5n6CC)c4)ccc3O)ccc21` [CBK261229], the “% of control remaining” value is reported as 40.4478.
